Reference: patent publication US20240181022A1, “AMURINS LYSINS, AND LYSIN-ANTIMICROBIAL PEPTIDE (AMP) CONSTRUCTS ACTIVE AGAINST GRAM-NEGATIVE BACTERIA” (priority 2021, published 2024)
Like-named read-outs stand apart in the source and are kept apart here.

System: P. aeruginosa strain ATCC 27853
Assay type: cell-based, Pseudomonas aeruginosa
Conditions: for MIC increase over the 28-day serial passage: Cation-Adjusted Mueller Hinton Broth (CAMHB); for change in antibiotic MIC after 28 days in the presence of ⅛th MIC of GN370: GN370 0.125 μg/mL
[1] = in the absence of GN370 (GN370: alone)

| SMILES | MIC increase over the 28-day serial passage | change in antibiotic MIC after 28 days in the presence of ⅛th MIC of GN370 | MIC increase after 28 days, agent alone [1] [fold] | MIC increase after 28 days, agent alone (in the absence of GN370, another instance) [fold] | antibiotic MIC increase after 28 days with 1/16th MIC and 1/32nd MIC of GN370 (GN370 0.0625 μg/mL and […]) [fold] | antibiotic MIC increase after 28 days in the presence of ⅛th MIC of GN370 (another instance) [fold] |
| --- | --- | --- | --- | --- | --- | --- |
| NC[C@H]1O[C@H](O[C@H]2[C@H](O)[C@@H](O[C@H]3O[C@H](CO)[C@@H](O)[C@H](N)[C@H]3O)[C@H](N)C[C@@H]2N)[C@H](N)C[C@@H]1O [tobramycin, reference compound] | ≤ 32 fold | no change in MIC | 32 | ≤ 4 |  |  |
| C[C@H]1COc2c(N3CCN(C)CC3)c(F)cc3c(=O)c(C(=O)O)cn1c23 [levofloxacin, reference compound] | ≤ 64 fold |  | 16 |  | 2 |  |
| C[C@@H](O)[C@H]1C(=O)N2C(C(=O)O)=C(S[C@@H]3CN[C@H](C(=O)N(C)C)C3)[C@H](C)[C@H]12 [meropenem, reference compound] | up to 1024 fold | no change in MIC | 32 |  |  | 2 |
